Assay results published in the supplement of paper PMC12632987.
Whole data set: some 4,500 sequences, median “median log2 fold change of GCK-ALFA target abundance (FLAG IP / Myc IP barcode read proportion)” near 0.078, cut for the lowest 2% near -0.6. The list shows a part of the results.

B1: GBRAP_14_3801 (protein)
chain: MEKRKKAINDIADEAEEELEEILADAPEEVRAAVLALVREARDKIIEENLTPDEVDELEDELLAEVAEILADAPEEVRAQVLATVAVHMGEIILEIEELE
B2: GBRAP_137_3615 (protein)
chain: KKVTITFSEEDGTAFAEIEADESVDLEKLEELIEEVAKEHGVKLVIAESEDPNDKVFYLVGTPEKIIAAVKDLIERLKKELGAEVVLESDGAEKLVEEVK
B3: GBRAP_125_3148 (protein)
chain: MKEKAIRLAIALAEAAGFSEEEIAELREIAEASDPRQAVVAVLLAAGFEEAAELAEEVLDKLTEEEFEELIKLAEESKDKSLEEFKKELLEKLKELKKKL
B4: GBRAP_184_5116 (protein)
chain: EVLEYELKVENKEEAEEKLEKVKEEAKKKKATVLVIVEVKNLTKEMAKTIVEKLAEIKKAGAKEVLALLESDKLSEEVLDTLDEGAKENGLDNLVIAYEE
B5: GBRAP_83_6967 (protein)
chain: AEKVTVVTTPDRVDEAIEAAKDLAEEEGKEVTVALVGDPEGVVAAARKVAEALKDLPNVSIEAVVTNVRAEEAERARRELEAIAEEHGLKLEFHADLIPP
B6: GBRAP_160_4395 (protein)
chain: SENFEKLKKEIEEIFEEAKKMIEGETPEERKVIVDVAFGEILLEIEENEEVSDELEEEFGKLLDKYRAEARKAVDEGLEALKKVIEKALKELKELIEKNE
B7: GBRAP_184_5229 (protein)
chain: TTVRRAVEAETAEELIAKVDAVVAEAAAAGERLALHVIAENVDLEGIERIMAYLAALKAAGRIADATLVVTDERSEEETDRLVALADRHGVRLVLALSEE
B8: GBRAP_125_3037 (protein)
chain: SLDAQVEALARIARRLGLSEEEVAELAELARRHGVKGALIALLLAEGLEELADLVARLSDAQVAAVLAELLAWLDAHPDATAEEVVARLRELVEAALAAA

Each binder was assayed against GABARAP, O95166 (assay: median log2 fold change of GCK-ALFA target abundance (FLAG IP / Myc IP barcode read proportion) (log2 ratio); each designed protein is fused to an ALFA-tag nanobody in HEK293 cells to bring the named protein to FLAG-tagged glucokinase (GCK); Myc marks an untargeted standard; higher = target protein stabilised (more abundant)). Conditions: target protein: 3xFLAG-MCP-GCK-ALFA reporter; HEK293 landing pad (RPLP).
Chain of GABARAP, O95166 (O95166 whole entry, the tested form may be a part): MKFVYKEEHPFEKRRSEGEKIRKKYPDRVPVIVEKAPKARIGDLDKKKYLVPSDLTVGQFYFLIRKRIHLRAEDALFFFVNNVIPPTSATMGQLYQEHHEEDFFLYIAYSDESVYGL
Procedure, shortened: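 Binders fused to an ALFA nanobody were recombined as a library into HEK293 landing-pad cells, which were induced with 2 μg mL^−1 doxycycline and then transfected to express a FLAG-tagged target and a Myc-tagged standard. After 48 h, circular RNA barcodes recovered by anti-FLAG and anti-Myc immunoprecipitation of lysates were reverse transcribed, amplified and sequenced. Each binder's target abundance is the median log2 ratio of FLAG to Myc barcode read proportions, from barcodes present at ≥10^−7 in both replicates, binders carrying ≥3 barcodes per replicate, a 10^−6 pseudocount and pooled replicates.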

| Binder | median log2 fold change |
| --- | --- |
| B1 | -0.206 |
| B2 | 0.199 |
| B3 | 0.158 |
| B4 | 0.157 |
| B5 | 0.0202 |
| B6 | -0.132 |
| B7 | 0.131 |
| B8 | -0.351 |
